# Results from PubChem BioAssay AID588453 (National Center for Advancing Translational Sciences (NCATS), 2011).
# In all, about 390,000 compounds went through this assay and about 4,000 (1%) were called active. Inconclusive means that the source gave no clear call. Such entries were picked first, then a sample of the others. Calls come from the whole dose curve; as a rule, active = well fitted inhibition curve with a large enough effect; inconclusive = small, poorly fitted or top-dose-only effect; inactive = no such curve, though single readings can be large or run the other way. A potency beside an inconclusive call is a rough fit, not a confirmed value.
# Biological target: Thioredoxin reductase 1, cytoplasmic (Rattus norvegicus) (UniProt O89049)
# Sequence of UniProt O89049 (O89049 whole entry, looked up): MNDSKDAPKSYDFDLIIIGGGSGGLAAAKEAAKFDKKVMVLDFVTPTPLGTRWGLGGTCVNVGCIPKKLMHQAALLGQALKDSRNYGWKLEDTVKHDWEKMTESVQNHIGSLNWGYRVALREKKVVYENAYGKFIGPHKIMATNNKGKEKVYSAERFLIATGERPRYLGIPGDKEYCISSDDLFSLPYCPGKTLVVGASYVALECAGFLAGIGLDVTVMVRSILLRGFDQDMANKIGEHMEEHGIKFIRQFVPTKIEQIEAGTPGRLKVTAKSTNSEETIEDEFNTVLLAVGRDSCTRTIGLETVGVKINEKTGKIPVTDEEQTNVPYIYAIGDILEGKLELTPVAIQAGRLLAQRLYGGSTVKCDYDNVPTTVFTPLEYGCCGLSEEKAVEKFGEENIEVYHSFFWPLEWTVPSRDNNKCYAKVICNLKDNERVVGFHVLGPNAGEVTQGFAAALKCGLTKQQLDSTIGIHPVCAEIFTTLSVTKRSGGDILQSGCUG
# Assay: qHTS Assay for Inhibitors of Mammalian Selenoprotein Thioredoxin Reductase 1 (TrxR1): qHTS; note: nearly all actives have a fitted effect of over 65% in size
# Details: recombinant rTrxR1, NADPH fluorescence consumption, selenite substrate; series mostly up to 114 µM; activity change, negative = inhibition: at the top concentration
# Method in brief: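 Rat TrxR1 (90 nM in the dispensed reagent) was pre-reduced with 400 uM NADPH for 5 min at room temperature, then incubated with compound for 15 min. After 400 uM selenite was added, NADPH fluorescence (Ex 340/Em 450 nm) was followed for 8 min.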
# % is set by controls: 0 for no effect and ±100 for the full control effect; potency is the fitted concentration of half-maximal effect; tags give direction and shape of the fitted curve.
Structure (SMILES),Potency,"activity change, negative = inhibition"
Cc1ccccc1S(=O)(=O)N1[C@@H](c2ccc(Br)cc2)C(C(=O)O)=CC[C@H]1c1ccc(Cl)cc1,"inconclusive: 22.4 µM [inhibitor, single point]",–
O=C(CN(Cc1cccs1)C(=O)CNS(=O)(=O)c1ccc(Cl)cc1)NCc1ccco1,"inconclusive: 25.1 µM [inhibitor, single point]",–
COc1ccc(C(C)=O)cc1COC(=O)c1ccc(S(=O)(=O)N(C)C)cc1,active: 44.7 µM,–
CCOc1cc(CNCc2cc(OC)cc(OC)c2)ccc1OC,"inconclusive: 25.1 µM [inhibitor, single point]",–
O=C(c1ccc2c(c1)OCCO2)C1CCN(S(=O)(=O)c2ccccc2F)CC1,–,inactive: 22.4%
Cc1csc(NC(=O)CSc2nnc(-c3ccco3)n2C)n1,"inconclusive: 44.7 µM [inhibitor, partial curve, poor fit]",–
CC(=O)c1c(N2CCN(c3cccc(Cl)c3)CC2)nc(=S)n(-c2ccccc2)c1C,"inconclusive: 11.2 µM [inhibitor, partial curve, poor fit]",–
O=C(N[C@@H](c1ccccc1)[C@@H]1C[C@H]1C(=O)O)OCc1ccccc1,"inconclusive: 31.6 µM [inhibitor, single point]",–
O=C(CCl)NCc1c(Cl)cccc1-n1cccc1,"inconclusive: 31.6 µM [inhibitor, full curve]",–
COc1ccc(CCN2C(=O)c3oc4ccc(F)cc4c(=O)c3C2c2ccc(C(C)(C)C)cc2)cc1 (stereo unspecified),–,inactive: 24.7%
CCc1cccc(C)c1NC(=O)Cn1ccn(-c2ccc(F)cc2)c(=O)c1=O,–,inactive: 22.2%
COc1ccc2nc(C)cc(Sc3nc4ccccc4s3)c2c1,"inconclusive: 35.5 µM [inhibitor, partial curve, poor fit]",–
CC(C)COC(=O)c1ccc2c(c1O)C(=O)c1ccccc1C2=O,–,inactive: 3.49%
CC(=O)c1ccc(Sc2nnc(C)s2)c([N+](=O)[O-])c1,"inconclusive: 89.1 µM [inhibitor, single point]",–
Cc1noc(C)c1NC(=O)N(C)C[C@H]1Oc2ccc(NS(=O)(=O)c3c(C)noc3C)cc2C(=O)N([C@H](C)CO)C[C@@H]1C,"inconclusive: 39.8 µM [inhibitor, partial curve]",–
O=C(COC(=O)CCC(=O)Nc1nccs1)NCc1ccco1,"inconclusive: 56.2 µM [inhibitor, single point]",–
CC(=O)N/C(=C\c1ccccc1)C(=O)OCc1ccc(F)cc1,–,inactive: 9.81%
O=C(O)C1(Nc2ccc(Br)cc2)CCCC1,"inconclusive: 3.16 µM [inhibitor, partial curve, poor fit]",–
CCOc1ccc(N2C(=O)CC(NC3CCN(C(=O)c4ccc(F)cc4)CC3)C2=O)cc1 (stereo unspecified),"inconclusive: 56.2 µM [inhibitor, partial curve]",–
CCOc1cc(C)c(S(=O)(=O)Nc2ccc(F)cc2)cc1C,"inconclusive: 35.5 µM [inhibitor, single point]",–
CCCS(=O)(=O)c1ncc(Cl)c(C(=O)Nc2scc(-c3ccccc3)c2C(=O)OCC)n1,active: 4.47 µM,–
CC(=O)N1CCN(C(=O)c2ccc(OC3CCN(CCc4ccccc4)CC3)cc2)CC1,"inconclusive: 89.1 µM [inhibitor, single point]",–

Structure (SMILES),Potency,"activity change, negative = inhibition"
Cc1cc(C)cc(N2CCn3c2nc2c3c(=O)n(Cc3ccc(Cl)cc3)c(=O)n2C)c1,–,inactive: 9.57%
Cc1nc(SCC(=O)NCc2ccco2)c2c3c(sc2n1)CCCC3,"inconclusive: 44.7 µM [inhibitor, partial curve]",–
CNc1oc(C)nc1S(=O)(=O)c1ccc(C)cc1,"inconclusive: 0.708 µM [inhibitor, full curve, poor fit]",–
CCc1ccc(/C=C/C(=O)c2cc(Br)ccc(=O)c2O)cc1,"inconclusive: 56.2 µM [inhibitor, partial curve, poor fit]",–
CCOCCCNC(=O)/C(C#N)=C/c1ccc(C)o1,"inconclusive: 70.8 µM [inhibitor, single point]",–
Nc1ncnc2c1nc(Sc1ccc(Cl)cc1)n2[C@H]1O[C@@H]2COP(=O)(O)O[C@H]2[C@@H]1O,"inconclusive: 37.7 µM [inhibitor, partial curve, poor fit]",–
Cc1cccc(-c2noc(-c3cc4ccccc4oc3=O)n2)c1,"inconclusive: 7.08 µM [inhibitor, single point]",–
N#C/C(=C(/O)CCCl)c1ccccn1,"inconclusive: 89.1 µM [inhibitor, partial curve, poor fit]",–
O=C(C1Cc2ccccc2CN1C(=O)c1ccco1)N1CCN(c2ccccc2)CC1 (stereo unspecified),"inconclusive: 70.8 µM [inhibitor, partial curve]",–
COc1ccc(Cl)cc1NC(=O)Cn1cc(C(=O)c2ccncc2)c(=O)c2cc(C)ccc21,–,inactive: 20.2% [at 57.1 µM]
COc1ccc(S(=O)(=O)N2CCCN(CC(=O)Nc3ccc4c(c3)OCO4)CC2)cc1,active: 79.4 µM,–
CCCCCC(=O)NNC(=S)NC(=O)c1cccc([N+](=O)[O-])c1,"inconclusive: 44.7 µM [inhibitor, partial curve, poor fit]",–
CCOc1ccc(-c2cc(OC(=O)c3ccccc3)c3c(C)oc(C)c3c(=O)c2)cc1,"inconclusive: 70.8 µM [inhibitor, partial curve]",–
CCCc1nc2sc3ccccc3c(=O)c2c(=O)n1Cc1ccco1,"inconclusive: 44.7 µM [inhibitor, partial curve]",–
O=C(CN1CCC(NC(=O)Nc2ccccc2)CC1)Nc1ccc([N+](=O)[O-])cc1,"inconclusive: 79.4 µM [inhibitor, partial curve, poor fit]",–
O=C(NC(=S)Nc1ccc(Cl)c(C(=O)O)c1)c1cccc(COc2ccccc2)c1,active: 70.8 µM,–
N#Cc1c(/N=C/c2ccc(-c3ccccc3C(=O)O)o2)sc2c1CCCC2,"inconclusive: 22.4 µM [inhibitor, partial curve, poor fit]",–
Cc1ccccc1Nc1c(-c2cc(Br)ccc2F)nc2ccccn12,–,inactive: -6.3%
CCOc1ccc(-c2cc(C(=O)Oc3ccc(C#N)cc3)no2)cc1,–,inactive: -2.37%
COC(=O)c1ccc(NC2CC(=O)N(c3ccccc3C)C2=O)cc1 (stereo unspecified),"inconclusive: 44.7 µM [inhibitor, single point]",–
COC(=O)C1=C(C)N(c2ccc(Cl)c(Cl)c2)C(=O)C1,active: 50.1 µM,–
O=C(CCS(=O)(=O)c1ccccc1)N(Cc1cccnc1)c1nc2ccc(Cl)cc2s1,"inconclusive: 7.94 µM [inhibitor, full curve, poor fit]",–

Structure (SMILES),Potency,"activity change, negative = inhibition"
Cc1c(Cl)cnc(NC(=O)COC(=O)c2ccc([N+](=O)[O-])s2)c1Cl,"inconclusive: 44.7 µM [inhibitor, partial curve]",–
COc1ccc(C2(CNC(=O)c3ccc(Br)o3)CCOCC2)cc1,"inconclusive: 79.4 µM [inhibitor, single point]",–
Cc1cc(C(=O)NCc2cccs2)c(C)o1,"inconclusive: 35.5 µM [inhibitor, partial curve]",–
CC(=O)OC1C(OC(C)=O)N(C(C)=O)C(=O)N1C(C)=O (stereo unspecified),"inconclusive: 25.1 µM [inhibitor, single point]",–
CC(=O)Nc1ccc(-n2cc(-c3ccccc3)[nH]c2=S)cc1,–,inactive: -1.2%
COc1ccc(C2CC(c3ccccc3)Oc3ccc(OC)cc32)cc1 (stereo unspecified),inactive,–
CC1CCN(C(=O)c2ccc([N+](=O)[O-])o2)CC1,"inconclusive: 39.8 µM [inhibitor, single point]",–
CC1(C)Cc2c(c(-c3ccco3)nc3sc4c(NCCO)ncnc4c23)CO1,"inconclusive: 50.1 µM [inhibitor, partial curve]",–
O=C(CCl)Nc1ccc(S(=O)(=O)NC2=NCCCCC2)cc1,–,inactive: -47.8% [at 57.1 µM]
O=C(Nc1ccc(Cl)cn1)c1cc2c(s1)-c1ccccc1OC2,"inconclusive: 56.2 µM [inhibitor, partial curve, poor fit]",–
COc1ccc(-n2c(C)cc(C)c(C(C)=O)c2=S)cc1,"inconclusive: 89.1 µM [inhibitor, single point]",–
Cc1csc(NC(=O)NC2(C(F)(F)F)Oc3ccccc3O2)n1,"inconclusive: 10 µM [inhibitor, full curve]",–
O=C(/C=C/c1ccccc1)c1ccccc1,"inconclusive: 100 µM [inhibitor, single point]",–
Cc1cc(-c2ccc(C)c(S(=O)(=O)NCc3cccc(Br)c3)c2)on1,inactive,–
CCOC(=O)c1sc(NC(=O)CSc2nc(C)cc(C(F)(F)F)n2)c(C#N)c1C,"inconclusive: 44.7 µM [inhibitor, partial curve, poor fit]",–
O=C(NCc1ccco1)c1csc(Nc2ccccc2Cl)n1,"inconclusive: 31.6 µM [inhibitor, single point]",–
Cc1cc(C)cc(OCC(=O)N(Cc2cccs2)c2ccc(Cl)cc2)c1,–,inactive: 39.9%
O=C(CCN1C(=O)/C(=C/c2ccccc2)SC1=S)NC1CCS(=O)(=O)C1 (stereo unspecified),–,inactive: 12.9%
CCCCC1(C)OC(=O)C(=Cc2ccc(N(C)C)cc2)C(=O)O1 (stereo unspecified),"inconclusive: 20 µM [inhibitor, full curve, poor fit]",–
COc1ccc(/C=C/C(=O)NC(=S)Nc2ccc(C(=O)O)cc2)cc1,"inconclusive: 56.2 µM [inhibitor, partial curve]",–
O=C(CCCl)Nc1nnc(SCC(=O)NC2CCCC2)s1,"inconclusive: 70.8 µM [inhibitor, partial curve, poor fit]",–
O=C1/C(=C/C=C/c2ccccc2)Oc2c1ccc(O)c2CN1CCN(CCO)CC1,"inconclusive: 39.8 µM [inhibitor, partial curve, poor fit]",–
